Measurements taken from PubChem BioAssay AID1948 (National Center for Advancing Translational Sciences (NCATS), 2009).
In all, about 110,000 compounds went through this assay and about 20 (0.02%) were called active. Inconclusive results, whose numbers are uncertain, are shown with a selection of clear calls. The call rests on the fitted dose curve; in most records, active means well fitted activation curve with a large enough effect; inconclusive means small, poorly fitted or top-dose-only effect; inactive means no such curve, though single readings can be large or run the other way. No potency is given beside an inconclusive call; the fits are too rough.

Assay: qHTS Assay for Compounds that Induce Erasure of Genomic Imprints;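 on activity change, positive = activation: 0% = negative control wells on the plate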
Conditions: mouse ES Peg3-LacZ reporter, beta-gal luminescence, 40 h; activity change, positive = activation: at 10.9 µM (top of the series) unless noted
Method in brief: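 Readout: BetaGlo luminescence (5 min, room temp) for LacZ from the normally silent maternal Peg3 allele in female Peg3LacZ-Neo ES cells. Cells 300/well, 40 h, 37C, 5% CO2. Data normalized per plate to negative controls.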
Potency means the concentration at half of the fitted maximal effect; tags describe the fitted curve by direction and shape.

SMILES	Potency	activity change, positive = activation
Fc1ccc(C(c2ccc(F)cc2)N2CCN(C/C=C\c3ccccc3)CC2)cc1	inactive	–
CC(=O)N1c2ccc(S(=O)(=O)N3CCCCCC3)cc2CC1C(=O)NCc1cccc(C)c1 (configuration not stated)	–	inconclusive: 42.2% [activator]
CC(C)CC(=O)NC1(C(F)(F)F)C(=O)Nc2c1c(=O)[nH]c(=O)n2-c1ccccc1 (configuration not stated)	inactive	–
COc1ccc(Nc2oc(/C=C/c3cccc(OC)c3)nc2C#N)cc1	–	inconclusive: 39.1% [activator]
Cc1ccc2c(c1)c(=O)c(C(=O)c1ccc3c(c1)OCO3)cn2Cc1ccc(Cl)cc1	–	inconclusive: 61.5% [activator]
Cc1ccc(-c2cc(=O)c3ccccc3[nH]2)cc1	inactive	–
CCCCCCc1ccc(O)cc1O	inconclusive [activator, single point]	–
CC1CCCCN1C(=O)c1ccc(C(=O)N2CCCCC2C)cc1 (configuration not stated)	inconclusive [activator, single point]	–
COc1ccc(CNc2ccnc(-c3cccc(NS(C)(=O)=O)c3)n2)c(OC)c1	inconclusive [activator, single point]	–
CCc1ccc(-c2[nH]nc3nc(-c4ccc(OC)cc4)cc(C(=O)NCCc4ccc(OC)c(OC)c4)c23)cc1	–	inconclusive: 67.7% [activator]
CC(C)c1ccc(OC(=O)c2cc(-c3ccc(Cl)cc3)on2)cc1	inactive	–
CCOC(=O)N1CCN(C(=O)c2cc(-c3ccc(OCC)cc3)nc3ccccc23)CC1	inactive	–
Cc1cc(C)nc(Sc2nc(C)nc3c2oc2ccccc23)n1	inconclusive [activator, single point]	–
CCOC(=O)N1CCC2(CC1)C(C(=O)C13CC4CC(CC(C4)C1)C3)C2(C#N)C#N (configuration not stated)	inconclusive [activator, single point]	–
CCS(=O)(=O)N1CCc2cc(C(=O)Nc3ccc(Br)cc3F)ccc21	inactive	–
COc1cccc(Cn2c(=O)c(CCc3ccccc3)nc3cnc(N4CCOCC4)nc32)c1	inconclusive [activator, single point]	–
Cc1cc(C)c(NC(=O)CCS(=O)(=O)c2cc3c(cc2Cl)NC(=O)CO3)c(C)c1	inactive	–
Cn1nnc(NC(=O)CSc2ncn[nH]2)n1	inconclusive [activator, single point]	–
Cc1cccc(CNC(=O)CCn2c(=O)c3cccn3c3ccc(F)cc32)c1	–	inconclusive: 83.7% [activator]
CN(C(=O)c1ccc(Cl)cc1)C1=CCCCC1CCC#N (configuration not stated)	inconclusive [activator, single point]	–
C=C1CCC2C(CC2(C)C)C(=O)CCC1O (configuration not stated)	inconclusive [activator, single point]	–
COc1cccc(Cn2c(=O)cnc3cnc(N(C)C)nc32)c1	inconclusive [activator, single point]	–
CCc1cccc(-n2c(=O)c3cccnc3n2CC(=O)Nc2ccc(F)c(C)c2)c1	–	inconclusive: 59.6% [activator]
CS(=O)(=O)Nc1cccc(-c2cncnc2-n2ccnc2)c1	inconclusive [activator, single point]	–

SMILES	Potency	activity change, positive = activation
COc1ccc(C2=C(C)C(=O)N(Cc3ccc(C(=O)NCc4cccc(C)c4)cc3)S2(=O)=O)cc1	inactive	–
CC(C)(C)c1ccc(OCC(=O)N2CCC(c3nc4ccccc4s3)CC2)cc1	–	inconclusive: 65% [activator]
Cc1cc(C)c(NC(=O)CSc2nc(=O)[nH]c3c2CCCC3)c(C)c1	–	inconclusive: 46.1% [activator]
Cc1ccc2onc(CNC(=O)N3CCN(c4cccc(C)c4C)CC3)c2c1	–	inconclusive: 51.4% [activator]
CCCCCS(=O)(=O)c1oc(-c2cccs2)nc1S(=O)(=O)c1ccc(C)cc1	inactive	–
COC(=O)CSc1nc(NCC(C)C)nc(N2CCOCC2)n1	inconclusive [activator, partial curve]	–
CC(=O)NC(C)(C)C1CC=C(C)/C(=N\O)C1 (configuration not stated)	inconclusive [activator, single point]	–
COc1ccc(-c2cc3ccc(O)c(CN4CCOCC4)c3oc2=O)cc1OC	–	inconclusive: 30.7% [activator]
CC(C)COC(=O)Nc1ccccc1C(=O)N1CCOCC1	inconclusive [activator, single point]	–
CC(=O)c1ccc(N2C(=O)N(CC(=O)c3ccc(F)cc3)c3ccccc3S2(=O)=O)cc1	–	inconclusive: 45.1% [activator]
O=C(Cn1nnc(-c2ccccc2Cl)n1)Nc1ccc(Br)cc1	–	inconclusive: 34.6% [activator]
CCOCCc1nn2c(=O)cc(COC(=O)C3CCCCC3)nc2s1	–	inconclusive: 36.3% [activator]
COc1ccc2c(c1)c1c(c(=O)n(CCc3ccccc3)c(=O)n1Cc1ccc(F)cc1)n2C	–	inconclusive: 40.5% [activator]
COc1cc2c(cc1OC)-c1c(OC)c(OC)cc3ccnc(c13)C2=O	inactive	–
Cc1ccc(CNC(=O)C2CCCN(c3nc4ccccc4o3)C2)cc1 (configuration not stated)	inconclusive [activator, single point]	–
COc1ccc(C(=O)COc2ccc(NC(C)=O)cc2)cc1	inconclusive [activator, single point]	–
CCOc1ccc(NC(=O)c2ccccc2O)cc1	inactive	–
CCOC(=O)C1CCN(c2c(NCc3ccc(C(=O)O)cc3)c(=O)c2=O)CC1	inconclusive [activator, single point]	–
COc1ccc(CNc2cc(-c3ccccc3OC)ncn2)c(OC)c1	inactive	–
CCOC(=O)C1CCCN(C(=O)CS(=O)(=O)Cc2ccccc2)C1 (configuration not stated)	inconclusive [activator, single point]	–
CN(C)c1ccc(-c2cncnc2-n2ccnc2)cc1	inconclusive [activator, partial curve]	–
CN(C)CCCn1cc(C2=C(c3c[nH]c4ccccc34)C(=O)NC2=O)c2ccccc21	inactive	–
Cc1onc(-c2ccccc2)c1C(N)=O	inactive	–
Cn1c(=O)c2c(nc(CN3CCN(c4ccccc4F)CC3)n2CCCc2ccccc2)n(C)c1=O	inconclusive [activator, single point]	–

SMILES	Potency	activity change, positive = activation
Cc1ccc(NC(=O)C2CCCN(S(=O)(=O)c3c(C)nn(C)c3C)C2)c(C)c1 (configuration not stated)	–	inconclusive: 90.2% [activator]
CCC(=O)C1=C(c2ccc(F)cc2)N(C(=O)CC)n2c(nnc2C2CCCCC2)S1	–	inconclusive: 41.9% [activator]
CCOC(=O)C(NC(C)=O)(OCc1ccc(F)cc1)C(F)(F)F (configuration not stated)	inconclusive [activator, single point]	–
O=C(c1cccs1)N1CCCc2cc(NS(=O)(=O)c3ccc(Br)cc3)ccc21	inactive	–
O=c1c2c3c(sc2nnn1CCCCOc1ccc(Cl)cc1)CCCC3	–	inconclusive: 38.4% [activator]
COc1ccc2c(c1)c(=O)c(C(=O)c1ccc(F)cc1)cn2CC(=O)Nc1ccc2c(c1)OCCO2	–	inconclusive: 36.9% [activator]
CC(NC(=O)c1cncc(Br)c1)c1ccc(S(N)(=O)=O)cc1 (configuration not stated)	inconclusive [activator, full curve, poor fit]	–
C=CCNC(=O)c1ccc(OC)cc1OC	inactive	–
c1ccc(CCc2nn3c(Cn4cnc5ccccc54)nnc3s2)cc1	inconclusive [activator, single point]	–
CCOc1ccccc1NC(=O)C(CC(C)C)NS(=O)(=O)c1ccc2c(c1)oc(=O)n2C (configuration not stated)	–	inconclusive: 60.8% [activator]
Cc1ccc2oc(-c3ccc(C)c(NC(=O)c4ccc(N5CCC(C)CC5)c([N+](=O)[O-])c4)c3)nc2c1	–	inconclusive: 56.7% [activator]
O=c1c2cc3c(cc2n(Cc2ccc(F)cc2)c(=O)n1Cc1nc(-c2ccccc2)no1)OCO3	–	inconclusive: 35% [activator]
CCCC(=O)C1=C(SCC)CC(C)(C)C(C(=O)OC)C1=O (configuration not stated)	inactive	–
CCCn1nnnc1SCC(=O)NCc1cccs1	inactive	–
O=C(NCc1ccccc1Cl)C1CCCN(S(=O)(=O)c2cccc3nsnc23)C1 (configuration not stated)	–	inconclusive: 33.2% [activator]
OC[C@H](CCc1c[nH]c2ccccc12)c1c[nH]c2ccccc12	inactive	–
Clc1ccccc1-c1ccc2ncnc(NCCN3CCOCC3)c2c1	inconclusive [activator, single point]	–
CCOC(=O)c1ccc(N2C(=O)c3[nH]nc(-c4ccc(OC)cc4)c3C2c2ccccc2Cl)cc1 (configuration not stated)	–	inconclusive: 49.2% [activator]
Cc1cc(N2CCN(c3cccc(C(F)(F)F)c3)CC2)n2nc(-c3ccccc3)nc2n1	–	inconclusive: 31.2% [activator]
CC(=O)CSCc1ccccn1	inconclusive [activator, partial curve]	–
Cc1ccc(Cl)cc1-n1ncc2c(NCCCc3ccccc3)ncnc21	–	inconclusive: 36.1% [activator]
CCn1cc(C(=O)N2CCN(c3cc(C)ccc3C)CC2)c(=O)c2cc(S(=O)(=O)N3CCCCC3)ccc21	–	inconclusive: 37.7% [activator]
Cc1c(Cl)cccc1NC(=O)CC(c1ccc(F)cc1)N1Cc2ccccc2C1=O (configuration not stated)	–	inconclusive: 34.4% [activator]
O=S(=O)(NCc1ccccn1)c1cccc2nsnc12	inconclusive [activator, partial curve]	–
